{
  "source": "patent US12478592B2",
  "about": "“Dosage regime with esketamine for treating neuropsychiatric or neurological conditions” (priority 2019, dated 2025)",
  "tested_on": "bone marrow cells of Crl:CD(SD) rats",
  "experiment": "Mammalian erythrocyte micronucleus test, bone marrow",
  "data": [
    {"smiles": "CN[C@]1(c2ccccc2Cl)CCCCC1=O", "note": "[esketamine, (2S)-2-(2-Chlorophenyl)-2-(methylamino) cyclohexanone]", "values": [
      {"measurement": "induction of micronucleated polychromatic erythrocytes or bone marrow cell toxicity", "setting": "male or female rats, oral gavage", "result": "has not shown any evidence"},
      {"measurement": "proportion of polychromatic erythrocytes vs vehicle control", "setting": "male rats, 37.5 mg/kg/day and 75 mg/kg/day, p<0.05, within historical control range, not considered biologically relevant", "result": "Statistically significant decreases"}
    ]}
  ]
}
